Data: the RNAGym collection of RNA variant scans (doi:10.1073/pnas.2313332121)
Variants at the background level are over-represented here.

B1: TPR 5TU (parent)
chain: GGAUCUUCUCGAUCUAACAAAAAAGACAAAUCUGCCACAAAGCUUGAGAGCAUCUUCGGAUGCAGAGGCGGCAGCCUUCGGUGGCGCGAUAGCGCCAACGUUCUCAACUAUGACACGCAAAACGCGUGCUCCGUUGAAUGGAGUUUAUCAUG

Variants of: B1
Test: polymerase ribozyme fitness, log enrichment relative to wild type (log ratio); higher = more active; in vitro selection for triplet polymerase activity
Method in brief: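 Streptavidin-bead capture of gel-excised extended constructs, followed by RT-PCR, closed a single triplicate in vitro selection round. That round began by annealing PCR-built, transcribed mutant libraries of each subunit of a heterodimeric triplet polymerase ribozyme with a biotinylated primer, the partner subunit and triplets, then incubating them frozen at −7 °C. After Illumina sequencing of inputs and outputs, genotypes needed ≥10 input reads and ≥1 read per output. Fitness is the base-2 logarithm of genotype enrichment over wild-type enrichment, using inverse-variance-weighted replicate averages.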

Variant	polymerase ribozyme fitness (log ratio)
GGAUCUUCUCGAUCUAACAAAAAAGACAAAUCUGCCACAAAGCUUGAGAGCAUCUUCGGCAGCAGAGGCGGCAGCCUUCGGUGGCGCGAUAGCGCCAACGUUCUCAACUAUGACACGCAAAACGCGUGCUCCGUUGAAUGGAGUUUAUCAUG [A60C U61A]	-2.27
GGAUCUUCUCGAUCUAACAAAAAAGACAAAUCUGCCACAAAGCUUGAGAGCAUCUUCGGCUGCAGAGGCGCCAGCCUUCGGUGGCGCGAUAGGGCCAACGUUCUCAACUAUGACACGCAAAACGCGUGCUCCGUUGAAUAGAGUUUAUCACG [A60C G71C C93G G140A U151C]	≤ -4.2
GGAUCUUCUCGAUCUAACAAAAAAGACAAAUCUGCCACAAAGCUUGAGAGCAUCUUCGGCUGCAGAGGCGGCAGCCUUCGGAGUCGCGAUAGCGCCAACGUGCUCAACUAUGACACGCAAAACGCUUGCUCCGUUGAAUGGAGUUUAUCAUG [A60C U82A G84U U102G G126U]	≤ -4.2
GGAUCUUCUCGAUCUAACAAAAAAGACAAAUCUGCCACAAAGCUUGAGAGCAUCUUCGGCUGCAGAGGCGGCAGCUUUCGGUGGCGCGAUAGUGCCAACGUUCUCAACUAUGACACGCAAAACGCGUGCUCCGUUGAAUGGAGUUUAUCAUG [A60C C76U C93U]	-3.48
GGAUCUUCUCGAUCUAACAAAAAAGACAAAUCUGCCACAAAGCUUGAGAGCAUCUUCGGCUGCAUAGGCGGCAGCGUUCGGUGGCGCGAUAGCGCCAACGUUCUCAACUAUGACACGCAAAACGCGUGCUCCGUUGAAAGGCGUUUAUCAUG [A60C G65U C76G U139A A142C]	≤ -4.2
GGAUCUUCUCGAUCUAACAAAAAAGACAAAUCUGCCACAAAGCUUGAGAGCAUCUUCGGGUGCAGAGGCGGCAGCCUUAGGUGGCGCGAUAGCGCUAACGUUCUCAACUAUGACGCGCAAAAAGCGUGCUCCGUUGAAUGGAGUUUAUCAUG [A60G C79A C96U A115G C123A]	≤ -4.2
GGAUCUUCUCGAUCUAACAAAAAAGACAAAUCUGCCACAAAGCUUGAGAGCAUCUUCGGCUGCAGAGGCGGCAGCCUUCGGUGGCGCGAUAGCGCCAACGGUCUCAACUAUGACACGCAAAACGCGUGCUCCGUUGAAUGGAGUUUAUCAUG [A60C U101G]	-1.58
GGAUCUUCUCGAUCUAACAAAAAAGACAAAUCUGCCACAAAGCUUGAGAGCAUCUUCGGCUGCAGAGGCGGCAGCCUUCGUUGGCGCGAUAGCGCCAAUGUUCUCAACUAUGACACGCAAAACGCGUGGUCCGUUGAAUGGGGUUUAUCAUG [A60C G81U C99U C129G A142G]	≤ -4.2
GGAUCUUCUCGAUCUAACAAAAAAGACAAAUCUGCCACAAAGCUUGAGAGCAUCUUCGGCUGCAGAGGCGGCAGCCUUCGGUGCCGUGAGAGCGCCAACGUUCUCUACUAUGACACGCAAAACGCGUGCUCCGUUGAAUGGAGUUUAUCAUA [A60C G84C C87U U90G A106U G152A]	≤ -4.2
GGAUCUUCUCGAUCUAACAAAAAAGACAAAUCUGCCACAAAGCUUGAGAGCAUCUUCGGGUGCAGAGGCGGCAGCCUUCGGUGGCGCGAUGGCGCCAACGUUCUCAACUAUGACACGCAAAACGCGUGCUCCGUUGAAUGGAGUUUAUCAUG [A60G A91G]	-2.73
GGAUCUUCUCGAUCUAACAAAAAAGACAAAUCUGCCACAAAGCUUGAGAGCAUCUUCGGCUGCAGAGGCGGCAGCCUUCAGUGGCGCCAUAGCGCCAACGUUCUCAACUAUGACACGCAAAACGCGUGCUCCGUUGAAUGGUGGUUAUCAUG [A60C G80A G88C A142U U144G]	≤ -4.2
GGAUCUUCUCGAUCUAACAAAAAAGACAAAUCUGCCACAAAGCUUGAGAGCAUCUUCGGGUGCAGAGGCGGCAGCCUUCGGUGGCGCGAUAGCGCCAACGUUCUCAACUAUGCCACGCAAAACGCGUGCUCCGUUGAAGGGAGUCUACCAUG [A60G A113C U139G U145C U148C]	≤ -4.2
GGAUCUUCUCGAUCUAACAAAAAAGACAAAUCUGCCACAAAGCUUGAGAGCAUCUUCGUAUGCAGAGGCGGCAGCCUUCGGUGGCGCGAUAGCACCAACGUUCUCAACUAUGACACGUAAAACGCGUGCUCCGUUGAAUGGAGUUUAUCGUG [G59U G94A C118U A150G]	-1.69
GGAUCUUCUCGAUCUAACAAAAAAGACAAAUCUGCCACAAAGCUUGAGAGCAUCUUCGGGUGCAGAGGCGGCAGCCUUCGGUGGCGCGAUAGCGCCAACGUUCUCAACUAUGACACGCCUAACGCGUGCUCCGUUGAAUGGAGUUUAUCACG [A60G A119C A120U U151C]	-4.18
GGAUCUUCUCGAUCUAACAAAAAAGACAAAUCUGCCACAAAGCUUGAGAGCAUCUUCGGCUGCAGAGGCGGCAGCUUUCGGUGGCGGGAAAGCGCUAACGUUCUCAACUAUGACACGCAAACCGCGUGCUCCGUUGAAUGGAGUUUAUCUUG [A60C C76U C87G U90A C96U A122C A150U]	≤ -4.2
GGAUCUUCUCGAUCUAACAAAAAAGACAAAUCUGCCACAAAGCUUGAGAGCAUCUUCGGGUGCAGAGGCGGCAGACUUCGGUGGCGCGAUAGCGCCAACGUUCUCAACUAUGACACGCAAAACGCGUGCUCCGGUGAAUGGAGUUUAUCAUG [A60G C75A U134G]	≤ -4.2
GGAUCUUCUCGAUCUAACAAAAAAGACAAAUCUGCCACAAAGCUUGAGAGCAUCUUCGUAUGCAGAGGCGGCAGCCUGCGGUGGCGCGAUAGCGCCAACGUUCUCAACUAUGACACGCAAAACGCGUGCUCCGUUGAAUGGAGUUUAUCAUG [G59U U78G]	≤ -4.2
GGAUCUUCUCGAUCUAACAAAAAAGACAAAUCUGCCACAAAGCUUGAGAGCAUCUUCGUAUGCAGAGGCGGCAGCCUUCCGUGGCGCGAUAGCGGCAACGUUCGCAACUAUGACACGCAAAACGCGUGCUCCGUUGAAUGGAGUUUAUCAUG [G59U G80C C95G U104G]	≤ -4.2
GGAUCUUCUCGAUCUAACAAAAAAGACAAAUCUGCCACAAAGCUUGAGAGCAUCUUCGGCUGCAGAGGCGGCAGCAUUCGGUGGCGCGAUAGCGCCAUCGUUCUGAACUAUGACACGCAAAACGCGUGCUCCGUGGAAUGGAGUUUAUCAUG [A60C C76A A98U C105G U135G]	≤ -4.2
